Measured values from PubChem BioAssay AID686979 (National Center for Advancing Translational Sciences (NCATS), 2013).
Where “and” joins values, the source holds several entries; their conditions need not be identical. Equal values may be shown once. The campaign covered roughly 420,000 compounds. About 50,000 (12%) were called active. The inconclusive results got no clear call from the source; some entries with a clear call stand among them for comparison. The call rests on the fitted dose curve; in most records, active means well fitted inhibition curve with a large enough effect; inconclusive means small, poorly fitted or top-dose-only effect; inactive means flat fitted curve, though single readings scatter. No potency is given beside an inconclusive call; the fits are too rough.

experiment: qHTS for Inhibitors of human tyrosyl-DNA phosphodiesterase 1 (TDP1): qHTS in cells in presence of CPT; settings: chicken DT40 Tdp1-/-;hTDP1 cells + 20 nM CPT, ATP luminescence, 48 h; activity change, negative = growth inhibition: at 46.2 µM (top of the series) unless noted; further: nearly all actives have a fitted effect of over 55% in size
Outline: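 Cell growth measured by CellTiter-Glo luminescence after a minimum 48 h, 37 C compound exposure with 20 nM CPT in Tdp1-knockout DT40 cells stably expressing hTDP1, seeded 400/well; qHTS titration format.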
On the % scale 0 is the no-effect control and ±100 the full control effect; potency means the concentration at half of the fitted maximal effect; tags describe the fitted curve by direction and shape.

| SMILES | Potency | activity change, negative = growth inhibition |
| --- | --- | --- |
| CCOc1ccc(CCNC(=O)CN2C(=O)NC3(CCCCC3)C2=O)cc1OCC | inactive |  |
| COc1ccc(C2=NN(CC(=O)NCc3ccccc3Cl)C(=O)CC2)cc1 | inactive |  |
| CCN(CC)S(=O)(=O)c1ccc(N2CCOCC2)c(NC(=O)COc2ccccc2C)c1 | active: 20.6 µM |  |
| Fc1cccc(NCc2cccn2-c2nnc(N3CCOCC3)s2)c1 | inconclusive [inhibitor, single point] |  |
| C=CCn1c(=O)c(CCC(=O)Nc2ccc(N3CCOCC3)cc2)nc2cc(C(F)(F)F)ccc21 | inconclusive [inhibitor, single point] |  |
| Cc1cnc(C)c(Nc2nc(C(N)Cc3ccccc3)cs2)n1 (stereo unspecified) | inconclusive [inhibitor, single point] |  |
| CCCC(C)NS(=O)(=O)c1ccc(OC)c(C)c1 (stereo unspecified) | inconclusive [inhibitor, partial curve] |  |
| CCCc1cc(C(=O)O)c2ccccc2n1 | inactive |  |
| COc1cc2c(cc1OC)CN(C(=O)c1cc3ccccc3oc1=O)CC2 | active: 10.3 µM |  |
| COc1ccc(S(=O)(=O)Nc2ccc3c(c2)CCC3)cc1 | inconclusive [inhibitor, single point] |  |
| COc1ccccc1Cc1c(-c2ccco2)nc2ccc(Br)cn12 | active: 10.3 µM |  |
| CCc1ccccc1NC(=O)c1cccc(Oc2ccc([N+](=O)[O-])cc2Cl)c1 | inconclusive [inhibitor, single point] |  |
| CC1=C(C(=O)OCCOC(C)C)C(c2cccc3ccccc23)NC(=O)N1 (stereo unspecified) |  | inconclusive: -36.2% [inhibitor] |
| c1nc(NC2CCCCCC2)c2[nH]cnc2n1 | active: 35.5 µM and active: 10.3 µM |  |
| Cc1cnc(C(=O)OCc2nc3ccsc3c(=O)[nH]2)cn1 | inactive |  |
| COc1cccc(Nc2nc(C(N)COCc3ccccc3)cs2)n1 (stereo unspecified) | inconclusive [inhibitor, single point] |  |
| Cc1cccc(NC(=O)c2ccc([N+](=O)[O-])s2)c1C | active: 14.6 µM |  |
| Cc1ccc(NCc2cccn2-c2nnc(N3CCC(C(=O)NCCc4ccccc4)CC3)s2)cc1 | inconclusive [inhibitor, single point] |  |
| CCOC(=O)c1c(CSc2ccccc2)n(C)c2ccc(O)c(CN3CCN(C)CC3)c12 | inconclusive [inhibitor, single point] |  |
| COc1ccc(-c2c3c(nc4sc(C(=O)Nc5ccc(Cl)cc5)c(N)c24)CC(C)(C)CC3=O)cc1 | active: 16.4 µM |  |
| COc1ccc2nc(NC(=O)CSc3nc4ccccc4o3)sc2c1 | inconclusive [inhibitor, single point] |  |
| CCOC(=O)C1(CCc2ccccc2)CCN(Cc2ccn[nH]2)CC1 | inconclusive [inhibitor, single point] |  |
| COc1ccc(CNC(=O)C(=O)NCCC2CCCCN2S(=O)(=O)c2ccccc2)cc1 (stereo unspecified) | inconclusive [inhibitor, partial curve] |  |
| Cc1ccc(CN(C(=O)COc2ccc(C(C)(C)C)cc2)C2CCS(=O)(=O)C2)o1 (stereo unspecified) | inconclusive [inhibitor, single point] |  |

| SMILES | Potency | activity change, negative = growth inhibition |
| --- | --- | --- |
| COc1ccc(CCC(=O)NNC(=O)c2ccc(F)cc2)cc1 | inactive |  |
| CN(C)c1ccc(CNC(=O)CCC(=O)N2Cc3ccccc3Oc3ncccc32)cc1 | inconclusive [inhibitor, partial curve] |  |
| CCOC(=O)C1(Cc2cccc(Cl)c2)CCCN(C(=O)CCC(=O)N(C)C)C1 (stereo unspecified) | inconclusive [inhibitor, single point] |  |
| O=C(CN(c1ccc(F)cc1)S(=O)(=O)c1ccc2c(c1)OCCO2)NCc1ccccc1 | inactive |  |
| COc1ccccc1-c1nccc(NCc2cccs2)n1 | active: 20.6 µM |  |
| COc1ccc(C(C(=O)NC(C)(C)C)n2c(COc3ccc(C)cc3)nc3ccccc32)cc1 (stereo unspecified) | active: 18.4 µM |  |
| Cn1cc(-c2cnc3c(NC=O)cc(-c4cccc(C(F)(F)F)c4)cn23)cn1 | inconclusive [inhibitor, partial curve, poor fit] |  |
| CC1(Cc2ccccc2C#N)C(=O)Nc2ccc(-c3ccccc3)cc21 (stereo unspecified) | inconclusive [inhibitor, single point] |  |
| CCOc1ccc(-c2csc(N)c2C(=O)OC)cc1 | inconclusive [inhibitor, single point] |  |
| COc1cccc(CNC(=O)CCC2CCCN(C(=O)CCc3c(C)noc3C)C2)c1 (stereo unspecified) | inactive |  |
| CC1(C(=O)NS(=O)(=O)c2ccccc2)CCN1C(=O)CC(c1ccccc1)c1ccccc1 (stereo unspecified) | inconclusive [inhibitor, single point] |  |
| Clc1ccc(CNc2nc3ccccc3c3nc(-c4cccnc4)nn23)cc1 | inactive |  |
| CCc1cccc(C)c1NC(=O)CN1C(=O)c2c(c3ccccc3n2C)C1c1ccc(OC)cc1 (stereo unspecified) | inconclusive [inhibitor, single point] |  |
| Cc1cn(-c2cccnc2)c(C)c1CNC[C@H]1O[C@@H](n2cnc3c(N)ncnc32)[C@H](O)[C@@H]1O | active: 18.4 µM |  |
| O=c1c(CCc2ccccc2)nc2cnc(N3CCNCC3)nc2n1CCc1ccccc1 | inconclusive [inhibitor, single point] |  |
| Cn1nnc2c(N3CCCCC3)ncnc21 | inconclusive [inhibitor, partial curve, poor fit] |  |
| CCOc1ccccc1NC(=O)CN(CCc1ccccc1)S(=O)(=O)c1ccc(C)cc1 | inconclusive [inhibitor, single point] |  |
| CCC(=O)N1CCc2cc(S(=O)(=O)N3CCN(c4ccccc4)CC3)ccc21 | inactive |  |
| O=C(O)CCc1nn2c3ccccc3nc2n(-c2ccccc2)c1=O | inactive |  |
| COc1ccc(C(=O)Nc2ccccc2C(=O)Nc2cccc(C)n2)cc1 | inactive |  |
| O=C(Nc1nnc(-c2cc(Cl)ccc2Cl)o1)c1ccco1 | inconclusive [inhibitor, single point] |  |
| CCN1CCCC1CNC(=O)CCNC(=O)c1cc(OC)c(OC)c(OC)c1 (stereo unspecified) | inactive |  |
| COc1ccc(N(C)S(=O)(=O)c2cccc(C(=O)OCC(=O)c3c(N)n(C)c(=O)n(C)c3=O)c2)cc1 | active: 23.1 µM |  |
| Cn1c(CC(=O)Nc2ccccc2F)nnc1SCC(=O)NC1=NCCS1 | inconclusive [inhibitor, single point] |  |

| SMILES | Potency | activity change, negative = growth inhibition |
| --- | --- | --- |
| Cc1ccc2cc(C#N)c(NCCNC(=S)NCCCN(C)C)nc2c1C | inconclusive [inhibitor, single point] |  |
| CCC(C(=O)Nc1cc(C(=O)Nc2cc(C)ccn2)ccc1Cl)c1ccccc1 (stereo unspecified) | inconclusive [inhibitor, single point] |  |
| O=C(O)c1cc(NC(=O)c2cccc(C(=O)Nc3cc(C(=O)O)cc(C(=O)O)c3)c2)cc(C(=O)O)c1 | inactive |  |
| OCC1(Cc2ccc(F)cc2F)CCCN(CCCc2ccccc2)C1 (stereo unspecified) | inconclusive [inhibitor, single point] |  |
| COc1ccc(-c2nc(CCNC(=O)c3cccs3)cs2)cc1OC | inconclusive [inhibitor, single point] |  |
| CN1C(=O)N(CC(=O)N2CCN(S(=O)(=O)c3ccc4c(c3)CCC4)CC2)C(=O)C12CCCCC2 | inconclusive [inhibitor, partial curve] |  |
| CSc1nc(N2CCOCC2)c2c3c(sc2n1)CCCC3 | inconclusive [inhibitor, single point] |  |
| O=C(Nc1ccc(F)c(Cl)c1)Nc1nnc([C@H]2C[C@H](O)[C@@H](CO)O2)s1 | inconclusive [inhibitor, single point] |  |
| COc1ccc(CCNC(=O)C2CC=CCC2C(=O)O)cc1 (stereo unspecified) | inactive |  |
| Cc1nc2ccccc2nc1CN1CCOc2ccc(C(C)(O)COc3ccccc3)cc2C1 (stereo unspecified) | inconclusive [inhibitor, single point] |  |
| CCCCN(C)C(=O)CN1C(=O)CCn2nc(-c3cn(C)c4ccccc34)cc21 | inconclusive [inhibitor, partial curve, poor fit] |  |
| Cc1ccc(CC(=O)OCC(=O)c2ccc[nH]2)cc1C | inactive |  |
| COc1ccc(OCC(=O)Sc2ccc(C)cc2)cc1 | inconclusive [inhibitor, single point] |  |
| Cc1cccc(C)c1NC(=O)C(c1ccc(Cl)cc1Cl)N1CCCCC1 (stereo unspecified) | active: 18.4 µM |  |
| CC1(C)C(=O)C2(CCCC2)C(=O)OC1c1ccco1 (stereo unspecified) | inactive |  |
| CCOc1ccc2c(c1)c1nc3ccccc3nc1n2C | inconclusive [inhibitor, single point] |  |
| CNC(=O)c1c(NC(=O)CCS(=O)(=O)c2ccc(C)cc2)sc(C)c1C | inconclusive [inhibitor, single point] |  |
| CN1CCN(Cc2cc(Cl)c3cccnc3c2OC(=O)c2cccs2)CC1 | active: 4.61 µM |  |
| CC1Cc2ccccc2N1C(=O)c1ccc(N2CCCCC2)c([N+](=O)[O-])c1 (stereo unspecified) | inconclusive [inhibitor, single point] |  |
| Cc1sc(NC(=O)c2c(F)cccc2F)nc1-c1ccccc1 | inactive |  |
| O=c1cnnc(Nc2cccc(C(F)(F)F)c2)[nH]1 | inactive |  |
| CC(=O)N1Cc2cc(C(=O)NCc3cccc(F)c3)nc(-c3cccc(C4=CCCCC4)c3)c2[C@H]1CCO | inconclusive [inhibitor, single point] |  |
| O=C(O)c1cccc(NC(=O)c2ccc(CN3C(=O)c4ccccc4C3=O)cc2)c1 | inactive |  |
